Data from the antibiotic and cytotoxicity screens of Wong et al. (2023).
Some of the results follow.

Experiments:
[1] = test system: HSkMC (human skeletal muscle cells); experiment: cytotoxicity call (relative viability < 0.9); conditions: 10 µM
[2] = test system: HepG2; experiment: cytotoxicity call (relative viability < 0.9); conditions: 10 µM
[3] = test system: S. aureus RN4220; experiment: growth inhibition call (relative growth <= 0.2); conditions: 50 µM

C[C@@H]1CCCCO[C@@H](CN(C)Cc2ccncc2)[C@H](C)CN([C@@H](C)CO)C(=O)c2cc(NC(=O)c3ccccc3)ccc2O1
inactive: cytotoxicity call [1] | cytotoxicity call [2] | growth inhibition call [3]

OC[C@@H]1CN(CCN2CCOCC2)C[C@H](n2cnc3c(NC4CC4)ncnc32)O1
inactive: cytotoxicity call [1] | cytotoxicity call [2] | growth inhibition call [3]

O=C(CCCCCC(=O)N/N=C/[C@H](O)[C@@H](O)[C@H](O[C@@H]1O[C@H](CO)[C@H](O)[C@H](O)[C@H]1O)[C@H](O)CO)NO
inactive: cytotoxicity call [1] | cytotoxicity call [2] | growth inhibition call [3]
